Experimental data as given in paper PMC5906663.
No constants are given. Whether binding was seen depends on the method and setting. For part of these data: Binding seen in cells or lysates may run through a third protein. Some entries that bind do so weakly or less than the wild type. For part of these data: Sequences can lack the tags named with a protein. Each block holds one molecule with its values, some of them ahead of it.

Protein sequences, listed by entry. Tags and fused reporters are not part of them. Lines headed by an entry give the natural chain unless they say otherwise; changes in a name come on top. Chains listed by the source or under a name are the forms on record and can include a tag or linker. Residues count along the entry.
UniProt P13595, residues 20-1115: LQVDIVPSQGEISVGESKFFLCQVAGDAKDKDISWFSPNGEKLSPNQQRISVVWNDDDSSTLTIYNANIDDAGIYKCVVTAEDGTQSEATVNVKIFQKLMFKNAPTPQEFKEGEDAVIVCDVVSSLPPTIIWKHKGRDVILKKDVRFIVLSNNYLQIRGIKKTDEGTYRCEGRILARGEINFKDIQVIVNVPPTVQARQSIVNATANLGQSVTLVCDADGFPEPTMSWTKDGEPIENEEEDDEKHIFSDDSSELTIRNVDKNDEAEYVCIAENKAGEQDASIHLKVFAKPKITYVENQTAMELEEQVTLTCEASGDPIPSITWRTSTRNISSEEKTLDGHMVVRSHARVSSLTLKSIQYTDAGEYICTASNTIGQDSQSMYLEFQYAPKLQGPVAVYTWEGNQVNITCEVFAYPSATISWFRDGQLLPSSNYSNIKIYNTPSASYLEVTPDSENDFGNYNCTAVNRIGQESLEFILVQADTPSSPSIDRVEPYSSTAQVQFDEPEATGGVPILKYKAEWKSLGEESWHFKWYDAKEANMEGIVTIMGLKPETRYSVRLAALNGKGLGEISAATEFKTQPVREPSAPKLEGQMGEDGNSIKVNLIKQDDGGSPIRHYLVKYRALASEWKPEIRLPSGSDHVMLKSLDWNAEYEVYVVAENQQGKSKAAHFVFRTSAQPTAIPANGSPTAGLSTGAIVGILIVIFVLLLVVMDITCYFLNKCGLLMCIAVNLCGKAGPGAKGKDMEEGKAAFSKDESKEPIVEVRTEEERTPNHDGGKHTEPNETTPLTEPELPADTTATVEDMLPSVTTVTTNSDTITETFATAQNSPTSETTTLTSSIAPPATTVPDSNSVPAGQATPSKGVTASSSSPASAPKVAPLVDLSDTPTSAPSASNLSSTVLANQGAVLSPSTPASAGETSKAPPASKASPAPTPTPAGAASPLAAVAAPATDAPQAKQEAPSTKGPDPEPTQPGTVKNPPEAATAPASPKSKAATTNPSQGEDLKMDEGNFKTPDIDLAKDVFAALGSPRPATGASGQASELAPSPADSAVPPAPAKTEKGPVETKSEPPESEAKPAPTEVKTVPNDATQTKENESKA
human NCAM Ig1-5/FN1-2 Fc fusion protein (full-length NCAM-EC) (P13591, residues 20-718): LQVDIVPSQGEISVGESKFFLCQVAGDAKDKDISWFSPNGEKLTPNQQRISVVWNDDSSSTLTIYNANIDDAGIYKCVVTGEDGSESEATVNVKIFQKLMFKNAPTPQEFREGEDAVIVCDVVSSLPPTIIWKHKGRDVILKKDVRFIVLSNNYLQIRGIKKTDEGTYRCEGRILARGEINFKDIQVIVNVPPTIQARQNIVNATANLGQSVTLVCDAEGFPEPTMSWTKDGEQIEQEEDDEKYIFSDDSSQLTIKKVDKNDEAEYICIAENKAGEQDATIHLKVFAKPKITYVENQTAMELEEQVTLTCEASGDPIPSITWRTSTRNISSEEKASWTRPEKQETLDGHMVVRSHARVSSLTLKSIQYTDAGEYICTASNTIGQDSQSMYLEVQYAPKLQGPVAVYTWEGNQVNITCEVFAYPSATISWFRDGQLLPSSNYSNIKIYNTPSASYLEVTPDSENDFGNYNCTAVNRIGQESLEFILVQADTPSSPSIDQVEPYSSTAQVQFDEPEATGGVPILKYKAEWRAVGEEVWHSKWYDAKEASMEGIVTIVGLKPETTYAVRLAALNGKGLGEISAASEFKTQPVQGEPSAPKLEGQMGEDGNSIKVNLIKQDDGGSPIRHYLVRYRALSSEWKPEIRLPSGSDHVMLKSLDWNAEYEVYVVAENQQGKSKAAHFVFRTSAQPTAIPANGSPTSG
wild type NCAM-140 expressed in HEK293T cells (P13591, form named): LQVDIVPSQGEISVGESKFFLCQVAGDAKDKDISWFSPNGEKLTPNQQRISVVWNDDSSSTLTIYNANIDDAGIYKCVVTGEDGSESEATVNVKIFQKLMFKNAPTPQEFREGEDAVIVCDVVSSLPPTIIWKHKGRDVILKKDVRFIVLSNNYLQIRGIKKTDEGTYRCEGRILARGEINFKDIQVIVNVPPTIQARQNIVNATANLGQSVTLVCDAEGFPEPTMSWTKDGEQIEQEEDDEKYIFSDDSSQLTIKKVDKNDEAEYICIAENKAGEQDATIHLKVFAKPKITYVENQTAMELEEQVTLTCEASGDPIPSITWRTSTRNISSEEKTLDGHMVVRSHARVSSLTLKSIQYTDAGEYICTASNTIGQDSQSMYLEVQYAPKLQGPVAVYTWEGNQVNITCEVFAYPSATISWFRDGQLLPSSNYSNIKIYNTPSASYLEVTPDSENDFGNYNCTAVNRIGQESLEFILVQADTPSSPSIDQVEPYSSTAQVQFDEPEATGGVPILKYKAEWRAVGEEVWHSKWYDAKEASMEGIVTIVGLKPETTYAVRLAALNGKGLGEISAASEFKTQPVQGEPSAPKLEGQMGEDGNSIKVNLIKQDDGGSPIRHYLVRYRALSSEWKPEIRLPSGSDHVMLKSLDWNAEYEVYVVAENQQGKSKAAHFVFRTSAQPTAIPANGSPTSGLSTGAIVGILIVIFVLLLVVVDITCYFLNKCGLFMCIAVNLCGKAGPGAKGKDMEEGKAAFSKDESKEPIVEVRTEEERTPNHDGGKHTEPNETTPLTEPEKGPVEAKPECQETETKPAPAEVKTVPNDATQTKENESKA
UniProt Q61361, residues 23-883: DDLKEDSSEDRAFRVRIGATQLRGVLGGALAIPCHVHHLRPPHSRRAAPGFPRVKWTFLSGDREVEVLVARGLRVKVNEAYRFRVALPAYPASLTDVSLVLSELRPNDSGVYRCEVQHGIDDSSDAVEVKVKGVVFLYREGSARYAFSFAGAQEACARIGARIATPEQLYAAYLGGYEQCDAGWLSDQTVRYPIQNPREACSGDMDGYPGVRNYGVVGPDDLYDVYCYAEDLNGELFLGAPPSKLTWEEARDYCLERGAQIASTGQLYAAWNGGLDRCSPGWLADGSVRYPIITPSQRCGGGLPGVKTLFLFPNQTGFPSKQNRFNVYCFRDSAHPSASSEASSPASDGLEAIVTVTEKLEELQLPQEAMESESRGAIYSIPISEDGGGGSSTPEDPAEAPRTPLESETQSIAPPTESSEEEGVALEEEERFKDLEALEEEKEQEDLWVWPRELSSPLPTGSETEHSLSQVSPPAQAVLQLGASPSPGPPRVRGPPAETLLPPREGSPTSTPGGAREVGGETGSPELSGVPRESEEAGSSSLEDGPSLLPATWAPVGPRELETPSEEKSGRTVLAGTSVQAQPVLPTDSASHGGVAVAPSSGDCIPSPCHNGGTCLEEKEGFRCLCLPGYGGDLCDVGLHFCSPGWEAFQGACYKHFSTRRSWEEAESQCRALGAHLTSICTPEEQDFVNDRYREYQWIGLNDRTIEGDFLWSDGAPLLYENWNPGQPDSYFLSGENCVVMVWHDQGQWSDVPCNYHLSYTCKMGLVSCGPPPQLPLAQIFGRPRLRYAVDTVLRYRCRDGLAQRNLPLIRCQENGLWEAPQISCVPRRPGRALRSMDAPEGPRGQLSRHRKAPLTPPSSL
UniProt O14594, residues 23-1321: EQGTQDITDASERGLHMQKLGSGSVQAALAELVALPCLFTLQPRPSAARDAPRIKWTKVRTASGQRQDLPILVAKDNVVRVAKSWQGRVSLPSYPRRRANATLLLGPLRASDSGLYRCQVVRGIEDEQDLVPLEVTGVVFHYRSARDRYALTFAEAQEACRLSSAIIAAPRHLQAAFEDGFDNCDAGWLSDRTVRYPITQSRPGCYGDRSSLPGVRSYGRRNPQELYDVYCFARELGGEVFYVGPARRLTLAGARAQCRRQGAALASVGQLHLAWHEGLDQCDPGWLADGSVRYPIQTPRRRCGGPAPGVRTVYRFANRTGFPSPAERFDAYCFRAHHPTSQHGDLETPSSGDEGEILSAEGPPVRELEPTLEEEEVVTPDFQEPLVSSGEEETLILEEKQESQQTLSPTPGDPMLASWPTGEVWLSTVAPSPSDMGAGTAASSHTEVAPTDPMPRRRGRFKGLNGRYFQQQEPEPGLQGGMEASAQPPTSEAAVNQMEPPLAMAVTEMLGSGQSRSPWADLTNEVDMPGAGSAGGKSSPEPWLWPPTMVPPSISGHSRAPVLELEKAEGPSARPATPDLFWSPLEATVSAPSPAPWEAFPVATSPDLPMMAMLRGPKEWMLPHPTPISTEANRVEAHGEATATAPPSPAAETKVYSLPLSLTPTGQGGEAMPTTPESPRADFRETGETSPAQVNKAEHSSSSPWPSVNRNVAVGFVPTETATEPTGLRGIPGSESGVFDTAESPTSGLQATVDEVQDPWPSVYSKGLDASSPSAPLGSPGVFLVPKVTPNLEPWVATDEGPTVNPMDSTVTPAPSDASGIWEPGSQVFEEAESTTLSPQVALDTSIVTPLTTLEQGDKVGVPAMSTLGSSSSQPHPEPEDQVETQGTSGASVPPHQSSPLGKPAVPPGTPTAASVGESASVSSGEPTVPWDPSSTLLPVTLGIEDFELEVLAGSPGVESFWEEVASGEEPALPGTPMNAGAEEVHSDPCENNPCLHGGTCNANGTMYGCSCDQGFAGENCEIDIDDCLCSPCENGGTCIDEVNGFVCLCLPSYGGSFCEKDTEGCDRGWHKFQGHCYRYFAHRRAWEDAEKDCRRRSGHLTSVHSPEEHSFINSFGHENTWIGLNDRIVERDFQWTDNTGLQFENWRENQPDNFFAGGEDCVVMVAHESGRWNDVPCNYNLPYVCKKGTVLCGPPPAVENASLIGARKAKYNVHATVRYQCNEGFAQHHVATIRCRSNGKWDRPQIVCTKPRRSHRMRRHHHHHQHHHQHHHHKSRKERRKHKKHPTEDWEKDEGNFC

What was measured:
[1] = biological target: NCAM (neural cell adhesion molecule), endogenous in brain lysate (mouse (endogenous in brain)) (UniProt P13595); assay: co-IP; NCAM immunoprecipitated from mouse brain lysate (1 mg, RIPA buffer), Protein A/G agarose; immunoblot for neurocan, versican, aggrecan/brevican; P8 and P34 lysates compared
[2] = biological target: wild type NCAM-140 expressed in HEK293T cells (UniProt P13591); assay: co-IP; lysates (1 mg, RIPA buffer) of HEK293T cells transfected with NCAM140, NCAM mutants or EphA3, incubated with recombinant neurocan; precipitated with antibodies against NCAM (H-300) or EphA3 (C-19) and Protein A/G agarose; immunoblot for neurocan, densitometry; only the binder purified
[3] = biological target: human NCAM Ig1-5/FN1-2 Fc fusion protein (full-length NCAM-EC) (human) (UniProt P13591); assay: pull-down; 1 ug of neurocan (human or mouse) incubated with 1 ug of Fc protein in TBS for 1 hr at 37 C; Fc proteins pulled down with Protein A/G Sepharose beads; immunoblot, densitometry; both purified
[4] = biological target: T1, EphA3 expressed in HEK293T cells (UniProt P29320); assay: co-IP; lysates (1 mg, RIPA buffer) of HEK293T cells transfected with NCAM140, NCAM mutants or EphA3, incubated with recombinant neurocan; precipitated with antibodies against NCAM (H-300) or EphA3 (C-19) and Protein A/G agarose; immunoblot for neurocan, densitometry; only the binder purified
T1 sequence: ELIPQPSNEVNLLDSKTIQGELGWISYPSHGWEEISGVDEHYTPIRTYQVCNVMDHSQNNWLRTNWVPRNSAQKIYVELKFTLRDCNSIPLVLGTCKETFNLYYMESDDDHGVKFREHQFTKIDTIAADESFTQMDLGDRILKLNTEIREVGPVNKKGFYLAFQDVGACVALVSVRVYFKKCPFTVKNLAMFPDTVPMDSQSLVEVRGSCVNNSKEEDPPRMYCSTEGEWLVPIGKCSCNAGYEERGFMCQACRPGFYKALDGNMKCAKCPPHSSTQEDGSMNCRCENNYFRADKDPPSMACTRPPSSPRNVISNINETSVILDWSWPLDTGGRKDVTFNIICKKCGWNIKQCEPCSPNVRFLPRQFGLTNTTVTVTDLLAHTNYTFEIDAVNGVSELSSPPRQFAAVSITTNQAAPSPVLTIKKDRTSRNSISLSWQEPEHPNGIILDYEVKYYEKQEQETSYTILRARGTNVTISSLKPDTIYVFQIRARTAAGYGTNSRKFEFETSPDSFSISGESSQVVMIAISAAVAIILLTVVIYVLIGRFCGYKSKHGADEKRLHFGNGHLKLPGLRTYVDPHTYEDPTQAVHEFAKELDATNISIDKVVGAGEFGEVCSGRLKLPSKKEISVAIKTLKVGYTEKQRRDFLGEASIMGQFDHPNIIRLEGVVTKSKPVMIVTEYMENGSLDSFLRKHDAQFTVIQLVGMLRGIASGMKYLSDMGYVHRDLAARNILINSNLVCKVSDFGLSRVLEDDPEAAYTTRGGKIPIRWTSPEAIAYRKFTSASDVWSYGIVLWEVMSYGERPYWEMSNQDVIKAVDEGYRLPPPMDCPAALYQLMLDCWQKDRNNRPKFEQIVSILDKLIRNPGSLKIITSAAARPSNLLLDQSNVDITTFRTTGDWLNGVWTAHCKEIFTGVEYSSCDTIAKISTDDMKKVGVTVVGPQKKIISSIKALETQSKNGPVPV

recombinant ephrin-A5-Fc = biological target: T2, recombinant ephrin-A5-Fc (UniProt P52803); assay: pull-down; 1 ug of neurocan (human or mouse) incubated with 1 ug of Fc protein in TBS for 1 hr at 37 C; Fc proteins pulled down with Protein A/G Sepharose beads; immunoblot, densitometry; both purified
T2 sequence: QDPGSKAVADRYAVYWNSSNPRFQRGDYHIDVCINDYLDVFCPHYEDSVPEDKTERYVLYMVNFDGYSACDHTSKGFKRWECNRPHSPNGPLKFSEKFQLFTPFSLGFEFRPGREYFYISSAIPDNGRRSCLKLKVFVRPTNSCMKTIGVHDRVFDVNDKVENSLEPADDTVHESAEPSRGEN

[5] = biological target: wild type NCAM-140 expressed in HEK293T cells (UniProt P13591); assay: co-IP; competitive binding assay: HEK293T cells co-transfected with NCAM-140 and EphA3, lysed, NCAM immunoprecipitated, bound EphA3 by immunoblot; cells untreated or treated with neurocan (20 nM, 30 min)

- binding [1]: no binding
Molecule: brevican, endogenous in brain lysate (from UniProt Q61361 23-883)

- binding [2]: binds
- binding [3]: binds
Molecule: recombinant human neurocan (full-length protein) (from UniProt O14594 23-1321)

- binding [2]: binds
- binding [4]: no binding
- binding [3]: binds
Molecule: recombinant neurocan (species not stated for the experiment) (from UniProt O14594 23-1321)
- binding (recombinant ephrin-A5-Fc): no binding (tested: 1 ug of neurocan with 1 ug of Fc protein)

- binding [1]: no binding
Molecule: versican, endogenous in brain lysate (from UniProt Q62059 24-3357)

- binding [5]: binds
B1: EphA3 expressed in HEK293T cells (receptor, UniProt P29320 21-983)
chain: T1 sequence
